# ± gives the standard deviation of the averaged measurements. The list shows a part of the results.
# Tested on: PfAP2-I AP2 domain 3 (GST-tagged)
# Assay: gcPBM binding intensity (ln(normalized median fluorescence intensity)); higher = stronger DNA binding
# Method in brief: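 Each value is the highest Masliner-normalised natural-log median intensity across replicate spots of either orientation of a probe. The probes were primer-extended double-stranded 36-bp intergenic genomic sequences on an Agilent 4 × 180k array, alongside negative controls, exposed for 1 h to GST-tagged P. falciparum DNA-binding domains expressed in E. coli. Bound protein was picked up with Alexa488 anti-GST antibody and scanned at 488 nm.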
row,Sequence,gcPBM binding intensity (ln)
1,GTAGGTTTATATTGTAGTACATACAAACGTTAACAA [XGTACX_site5476],7.99 ± 0.47
2,ACAAAATTGATATATGCACACATATATATATTAAAT [CACACA_site8152],8.8 ± 0.085
3,ATACGTATTTTCTTTTGTACATATATATAAAATATT [XGTACX_site2675],7.91 ± 0.64
4,TTTATTTATTATTAAAGTACTAAAATATATTATTAT [XGTACX_site4887],7.62 ± 0.43
5,AATATTGCACCATTTTGTACATAATATATTCAAATA [XGTACX_site475],11.7 ± 0.74
6,TATATTTATTAGTTTCGTACGTACAAAGTTATTTTT [XGTACX_site8847],7.98 ± 0.23
7,TATTTTAATATTTGTAGTACAGATTGAAATGACGAA [XGTACX_site4805],8.19 ± 0.52
8,AATATAATCTTTCAAAAGAAAAAGACTTCATGAAAA [CACACA_negctrl_site1331],7.21 ± 0.7
9,ATATACGCATTAATAACACACAATATGATAACAAAT [CACACA_site3623],8.12 ± 0.3
10,ATTCGTGAACTAGCCAAACACACGAAAAAAAAAAAA [CACACA_site3342],8.02 ± 0.93
11,ATGTAACATAGGAAATGTACATATAAATATAATTTA [XGTACX_site6452],7.66 ± 0.35
12,TTTTATTGATTATTCATAAATATGCTATTCATCTAA [CACACA_negctrl_site1084],7.36 ± 0.66
13,TTTTTTTTTGGGGGTGCATGCAAGACATATATTTAA [TGCATGCA_site228],10.5 ± 0.46
14,CATACATATATATATACACACATACATATATATACA [CACACA_site8165],7.99 ± 0.38
15,TTTTTTTTTTGATGTTGTACATATATATTATATAAT [XGTACX_site2765],7.9 ± 0.55
16,GCTATTTATTTATATTGTACTTTTTTTTTTTTTTTT [XGTACX_site3624],8.65 ± 0.38
17,TATTTTGTTCTTTCCACACACAAATACCTATCTTGT [CACACA_site7833],8.35 ± 0.79
18,AAAAAAAAAAAATGTGCATGCTATATATATATATAT [TGCATGCA_site727],9.56 ± 0.3
19,TTAACAAATAGACACACACACACACGCAAAAAAAAA [CACACA_site6387],8.28 ± 0.47
20,TTTTTTTTTCATTATTGTACATTGAAACTTCATTTT [XGTACX_site6041],7.85 ± 0.76
21,ATATATATATTTACATGTACACATCTATATATAAAC [XGTACX_site5581],9.01 ± 0.014
22,AAAAAAAACGAACACACACACAAATATGTAAAAATA [CACACA_site6673],7.77 ± 0.58
23,TAAAAACAAAAATGTTGTACATAATATAAAACAATT [XGTACX_site6380],7.72 ± 0.47

row,Sequence,gcPBM binding intensity (ln)
1,CACACAATGGCTAGCTGTACATAATATATATCTACA [XGTACX_site4691],7.7 ± 0.47
2,GAAAATAAAATAAATGCATGTAAATTTAATGTAATG [TGCATGCA_site996],8.03 ± 0.92
3,TATATAAATATACAAACACACATACAAACATATATA [CACACA_site4754],7.95 ± 0.32
4,GTGGGAAACATAAACACACACAAAAAGAAAAAATAG [CACACA_site4810],8.07 ± 0.72
5,TCTCTAACTTTTAATACACACAAATAAATAAATAAA [CACACA_site6245],8.04 ± 0.52
6,GTTTTATTTATTTCATGTACACAAAAAAGGTTTTAA [XGTACX_site6525],8.34 ± 0.46
7,TACATACATACATACACACACACATATAAATACATA [CACACA_site4626],8.84 ± 0.67
8,AAAATAAAATAATAAAATAAAATAATAATAAAATAA [TGCATGCA_negctrl_site401],7.535 ± 0.064
9,AATACATATATATATTGTACATATAGGGAAAAATTA [XGTACX_site2275],7.78 ± 0.54
10,TGGTATCAAAAGAATACACACACACCGACATATATA [CACACA_site9265],7.68 ± 0.43
11,GAATATAAACATATTACACACATCTATCTGTACATT [CACACA_site5114],7.88 ± 0.7
12,AAAAAAAAAAGGTGTACATGCAAAATAAATTCTTAA [TGCATGCA_site556],7.89 ± 0.61
13,TATGGTAACATATGCTGTACAATATAATATGTTTAA [XGTACX_site1601],7.72 ± 0.45
14,AAAAAAAAAAAACACACACACACACCGACAAAATAT [CACACA_site8411],8.12 ± 0.53
15,TAAACATAAATATACACACAAACATATATGTATTTT [CACACA_site1214],7.53 ± 0.43
16,AAATTATAAATACCTACACACTTATCAAAATAAATT [CACACA_site5280],7.64 ± 0.52
17,AATATTTTTTTATAAACACACATATATATAAATATA [CACACA_site3524],7.89 ± 0.33
18,TATATATTTTTATGTGTGCACTGTTTCATAAAAGAA,10.5 ± 0.3
19,TAATAATTTATATATGCATGTCAAAATAATATTAAA [TGCATGCA_site12],7.89 ± 0.55
20,TATATAAATATAATATGTACATATAATATGTATATA [XGTACX_site8120],7.52 ± 0.2
21,ACTTATAAAATAACATGTACAAATATTTATTATATA [XGTACX_site133],7.79 ± 0.58
22,TCCTTACCTATTAAAGCATGCTCGAATATATATTTT [TGCATGCA_site53],7.88 ± 0.7
23,GTGGACGAAATAGTTGTAAATTTATGTGCAAACCTC [XGTACX_negctrl_site564],8.82 ± 0.41

row,Sequence,gcPBM binding intensity (ln)
1,ATATATATATCATATTGTACATACTTGTATTTATAT [XGTACX_site2432],9.21 ± 0.13
2,AACAAAATAAATGTATGTACATATATATATATATAT [XGTACX_site7974],9.28 ± 1.1
3,TATATTAAATATTACACACATACATTTAGTGTCAAA [CACACA_site1990],7.7 ± 0.35
4,TGGGAGCACAGACACACACACACACCGATATATATA [CACACA_site8001],8.45 ± 0.67
5,GCATAAATCAAACACACACACATATATATATATATA [CACACA_site2422],9.29 ± 0.23
6,AATGAATATAGTACTGAATGTAATTTAAGGTTTTCC [CACACA_negctrl_site1548],7.53 ± 0.68
7,TATAATGGATGCTAGCTGCACTAATAAGCAAAAATA,9.73 ± 0.071
8,GATGATATATATTAGCGTACATGTATATATACCATT [XGTACX_site6404],7.81 ± 0.49
9,TAAATGAGAAGGACTGCACACTAAAATGGAAGGAGA [CACACA_site8449],8.23 ± 0.71
10,TATTTGTATATATGTGTGCACGTATAATCCATTAAA [GTGCAC_site9569],10.7 ± 0.29
11,AAAATTTCAAATAACACACACTAATATATATCTGTA [CACACA_site4904],7.58 ± 0.54
12,ACATAAATAATAAAAACACACATATGTACAGATATA [CACACA_site5112],7.84 ± 0.56
13,AATGGTACATGATACACACACGCACATATATATATT [CACACA_site3425],7.9 ± 0.55
14,ATGTAGATATATATATGTACTAATTAGTAGTTTACG [XGTACX_site6275],8 ± 0.41
15,AGAAAAAATAAAAATAGTACTCAAAAAATTATGAAT [XGTACX_site4908],7.57 ± 0.42
16,AGAAAAAAAAAACACACACACACACCCTCAATATAA [CACACA_site39],7.75 ± 0.44
17,ATTTATATATTGCCCACACACATGTGATTATTTATA [CACACA_site1714],8.41 ± 0.42
18,ATATTAAAAAGAAGTGTGCGCAAAACATTAACTTGA,9.01 ± 0.5
19,AATGGATGGTCCAAATGTACATATATATATATATAT [XGTACX_site4800],9.39 ± 0.68
20,TAAATAAACCTGACTTGTACATGTAAAATAAATATA [XGTACX_site1667],7.61 ± 0.53
21,AAAAAAAAAAAAAAAACACACATTTCTTTTTCATAT [CACACA_site11],8.79 ± 0.42
22,AATAATAATATATGTAGTACACATTTCCATTATGTT [XGTACX_site3708],7.75 ± 0.27
23,TTAATTATATATAAAAGTACTTATTTTTCCATATAA [XGTACX_site3033],7.48 ± 0.37

row,Sequence,gcPBM binding intensity (ln)
1,TAATAGGAAATTATAGGTACACATACAAATAAATAA [XGTACX_site3587],7.87 ± 0.54
2,AAAATAACGAGTCAAACACACATATTTATATTTATA [CACACA_site7050],7.45 ± 0.53
3,TAATATAACTACATAACACACGAAAATATATGAATC [CACACA_site3628],8.01 ± 0.77
4,TCATTAATCAGGTATGCATGCATAACTATTAAAAAT [TGCATGCA_site90],7.75 ± 0.8
5,GTTATAAATGCATATACACACATACGTACATACATA [CACACA_site7655],8.21 ± 0.5
6,TCTTTTTTTTTTATTTGTACTTATTTTTTTCAAAAA [XGTACX_site3403],8.24 ± 0.51
7,TTATATGAAAAAATATGTACGTATAATGAGAAATAT [XGTACX_site8987],8.36 ± 0.63
8,AAATAGATAAACTAAACACACAAAAAAAAAAAAAAT [CACACA_site1179],7.61 ± 0.66
9,ATTTTAATACTTTTATATTAAATGTAGCACATCATA [XGTACX_negctrl_site273],7.83 ± 0.4
10,AAAAAGTGATTAAAATGTACAAAATGCATAAAAGAA [XGTACX_site6625],8.68 ± 0.68
11,AAAGTAAAAAAAAAAACATGCATACGCTAATTTTTA [TGCATGCA_site301],7.49 ± 0.54
12,GATATGTTAAATATATGTACATATATAAACCCAAAC [XGTACX_site6601],8.15 ± 0.54
13,TTATTTATTTAGTAGTGTACTTTTTATATTTATAAT [XGTACX_site5978],7.74 ± 0.47
14,CATTTTTTGCTTTCAACACACATACAATATAAATAA [CACACA_site7858],8.21 ± 0.37
15,AAAAAAAAAAAATACACACACATATATATATATATA [CACACA_site2224],9.46 ± 0.32
16,TATGTAATAAATAGTACACACACACCGATATATATA [CACACA_site8389],8.27 ± 0.59
17,TATAATAATATTATAGTGCATATTATTTATATATAA [GTGCAC_site9820],9.72 ± 0.16
18,ATTTTTATTTTCTTTACACACCACATAACTTTTTTT [CACACA_site7826],8.29 ± 0.46
19,ACTTTTTAATATTTTAGTACACAGTAATTCTTACTA [XGTACX_site1425],8.3 ± 0.49
20,ATATATATATATATATGTACATATATCTACATATAT [XGTACX_site7588],9.29 ± 0.81

# From the supplement of paper PMC11417369
